Measurements from paper PMC2670439 (Cell, 2009).

Target: the molecule itself
Experiment: SEC-MALS

B1: CAD-His6 (domain or fragment)
chain: not shown
stoichiometry N: 4
